Experimental data as given in the supplement of paper PMC4604168 (melanoma cell lines).
The other results are listed elsewhere or left out. Many values rest on one well or one pass, so single values are uncertain.
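Also: cell number obtained by counting DAPI-stained nuclei in high-throughput microscope images with image analysis software, screen run in 1,536-well plates.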

The compounds below were run on MZ2-MEL (assay: cell count relative to DMSO control; melanoma cells; higher = more viable cells). Details: library dose: low library concentration; 72 h.
With `CO[C@H]1C[C@@H]2CC[C@@H](C)[C@@](O)(O2)C(=O)C(=O)N2CCCC[C@H]2C(=O)O[C@H]([C@H](C)C[C@@H]2CC[C@@H](OCCO)[C@H](OC)C2)CC(=O)[C@H](C)/C=C(\C)[C@@H](O)[C@@H](OC)C(=O)[C@H](C)C[C@H](C)/C=C/C=C/C=C/1C` [everolimus] + COc1ccc(Cl)c(Nc2nc3ccccc3nc2NS(=O)(=O)c2cccc(NC(=O)C(C)(C)N)c2)c1 [XL147] (first compound 0.02 µM, partner dose 0.8 µM) the cell count was 64.9%. In the case of `CO[C@H]1C[C@@H]2CC[C@@H](C)[C@@](O)(O2)C(=O)C(=O)N2CCCC[C@H]2C(=O)O[C@H]([C@H](C)C[C@@H]2CC[C@@H](OCCO)[C@H](OC)C2)CC(=O)[C@H](C)/C=C(\C)[C@@H](O)[C@@H](OC)C(=O)[C@H](C)C[C@H](C)/C=C/C=C/C=C/1C` [everolimus] + Nc1nc(F)nc2c1ncn2[C@@H]1O[C@H](CO)[C@@H](O)[C@@H]1O [fludarabine] (first compound 0.02 µM, partner dose 0.2 µM), the cell count is reported as 89.6%. With `CO[C@H]1C[C@@H]2CC[C@@H](C)[C@@](O)(O2)C(=O)C(=O)N2CCCC[C@H]2C(=O)O[C@H]([C@H](C)C[C@@H]2CC[C@@H](OCCO)[C@H](OC)C2)CC(=O)[C@H](C)/C=C(\C)[C@@H](O)[C@@H](OC)C(=O)[C@H](C)C[C@H](C)/C=C/C=C/C=C/1C` [everolimus] + CC(=O)c1c(C)c2cnc(Nc3ccc(N4CCNCC4)cn3)nc2n(C2CCCC2)c1=O [palbociclib] (first compound 0.02 µM, partner dose 0.04 µM) the cell count was 60.9%. `CO[C@H]1C[C@@H]2CC[C@@H](C)[C@@](O)(O2)C(=O)C(=O)N2CCCC[C@H]2C(=O)O[C@H]([C@H](C)C[C@@H]2CC[C@@H](OCCO)[C@H](OC)C2)CC(=O)[C@H](C)/C=C(\C)[C@@H](O)[C@@H](OC)C(=O)[C@H](C)C[C@H](C)/C=C/C=C/C=C/1C` [everolimus] + Nc1ncn([C@H]2C[C@H](O)[C@@H](CO)O2)c(=O)n1 [decitabine] (first compound 0.02 µM, partner dose 0.1 µM) was tested, and the cell count was 70.2%. `CO[C@H]1C[C@@H]2CC[C@@H](C)[C@@](O)(O2)C(=O)C(=O)N2CCCC[C@H]2C(=O)O[C@H]([C@H](C)C[C@@H]2CC[C@@H](OCCO)[C@H](OC)C2)CC(=O)[C@H](C)/C=C(\C)[C@@H](O)[C@@H](OC)C(=O)[C@H](C)C[C@H](C)/C=C/C=C/C=C/1C` [everolimus] + C=CCNC1=C2C[C@@H](C)C[C@H](OC)[C@H](O)[C@@H](C)/C=C(\C)[C@H](OC(N)=O)[C@@H](OC)/C=C\C=C(/C)C(=O)NC(=CC1=O)C2=O [Tanespimycin] (first compound 0.02 µM, partner dose 0.002 µM) gave a cell count of 71%. Compound `CO[C@H]1C[C@@H]2CC[C@@H](C)[C@@](O)(O2)C(=O)C(=O)N2CCCC[C@H]2C(=O)O[C@H]([C@H](C)C[C@@H]2CC[C@@H](OCCO)[C@H](OC)C2)CC(=O)[C@H](C)/C=C(\C)[C@@H](O)[C@@H](OC)C(=O)[C@H](C)C[C@H](C)/C=C/C=C/C=C/1C` [everolimus] + CCCS(=O)(=O)Nc1ccc(F)c(C(=O)c2c[nH]c3ncc(Cl)cc23)c1F [PLX4720] (first compound 0.02 µM, partner dose 0.08 µM) has a cell count of 70.8%. `CO[C@H]1C[C@@H]2CC[C@@H](C)[C@@](O)(O2)C(=O)C(=O)N2CCCC[C@H]2C(=O)O[C@H]([C@H](C)C[C@@H]2CC[C@@H](OCCO)[C@H](OC)C2)CC(=O)[C@H](C)/C=C(\C)[C@@H](O)[C@@H](OC)C(=O)[C@H](C)C[C@H](C)/C=C/C=C/C=C/1C` [everolimus] + Nc1ccn([C@@H]2O[C@H](CO)[C@@H](O)C2(F)F)c(=O)n1 [gemcitabine] (first compound 0.02 µM, partner dose 0.0004 µM) gave a cell count of 66.1%. Work on `CO[C@H]1C[C@@H]2CC[C@@H](C)[C@@](O)(O2)C(=O)C(=O)N2CCCC[C@H]2C(=O)O[C@H]([C@H](C)C[C@@H]2CC[C@@H](OCCO)[C@H](OC)C2)CC(=O)[C@H](C)/C=C(\C)[C@@H](O)[C@@H](OC)C(=O)[C@H](C)C[C@H](C)/C=C/C=C/C=C/1C` [everolimus] + Nc1cccc2c1CN(C1CCC(=O)NC1=O)C2=O [lenalidomide] (first compound 0.02 µM, partner dose 1 µM) yielded a cell count of 71.6%.
